Results reported in PubChem BioAssay AID651965 (National Center for Advancing Translational Sciences (NCATS), 2013).
About 6,400 (1.9%) of roughly 340,000 compounds were called active. Not shown: some 4% with an inconclusive outcome. Calls follow the shape of the dose curve; as a rule, active = well fitted falling curve with a large enough effect; inconclusive = small, poorly fitted or top-dose-only effect; inactive = no such curve, though single readings can be large or run the other way. Some compounds were tested as several samples or in several runs, with calls that do not always agree. A number of entries come with more than one value. They are shown here; other results are not. There may be further records. Values that stand side by side repeat one measurement in other runs, samples, wells, individuals or studies. Marks in square brackets tell the records apart. Letters count within one entry.

Each compound was assayed against ATP-dependent Clp protease proteolytic subunit (Bacillus subtilis (strain 168)) (UniProt P80244) (assay: qHTS Assay for Activators of ClpP). Details: purified B. subtilis ClpP, FRET peptide cleavage, 20 min; series mostly up to 57.5 µM.
UniProt P80244, sequence (P80244 whole entry, looked up): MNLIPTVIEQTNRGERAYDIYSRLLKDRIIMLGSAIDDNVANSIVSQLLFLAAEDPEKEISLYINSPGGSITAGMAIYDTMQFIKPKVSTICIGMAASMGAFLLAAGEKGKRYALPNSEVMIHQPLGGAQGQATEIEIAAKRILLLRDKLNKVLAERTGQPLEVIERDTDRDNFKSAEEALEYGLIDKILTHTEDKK
From the text: The Clp protease proteolytic subunit (ClpP) is the core unit of the Clp complex belonging to the peptidase family S14 that hydrolyzes protein into small peptides in the presence of ATP and magnesium. It is ubiquitously expressed and is the major protease in bacteria. […] Unlike common antibiotics that simply interfere with the essential enzyme activity, ADEP binding activates the ClpP core in the absence of the regulatory Clp-ATPases leading to uncontrolled proteolysis and eventually cell death. […]
To identify activators of ClpP, a FRET based quenching reversal assay was developed using a purified B. subtilis ClpP and a decapeptide substrate (FRET-FV). […] FRET-FV cleaves upon activation of ClpP with ADEP treatement and reverses the quenching effect of the nitrotyrosine causing an increase in fluorescence emission signal at 430nm. […]
Two and a half microL/well of purified enzyme solution (final concentrations 10 microg/mL B. subtilis ClpP in 100 mM Tris/HCl pH8, 100 mM KCl, 0.05% low protease BSA, 2.5% glycerol, 0.01% Tween-20 buffer) was dispensed into 1536-well assay plates (Greiner, black solid, medium-binding plates) with Aurora Discovery BioRAPTR Flying Reagent Dispenser (FRD, Beckton-Dickenson). […] FRET signals at time 0 and after 20 min room temperature incubation were obtained using the PerkinElmer Envision plate reader with 320nm excitation and 430nm emission filters. […]
Also: the source files actives as falling curves though it sought activators and does not explain the sign; nearly all actives have a fitted effect of over 65% in size.
Potency is read from the fitted curve at half-maximal effect.

| SMILES | Potency |
| --- | --- |
| Cc1ccc(-n2ncc3c(Nc4cccc(C(=O)O)c4)ncnc32)cc1 | active: 3.55 µM [sample A] and inactive [sample B] |
